The text below walks through data of publication PMC4336329 (PLoS ONE, 2015).

About 2,200 (0.71%) of roughly 310,000 compounds showed an effect of 50% or more. Effects have a minus sign here. The list shows a part of the results.

The target of this experiment is human ether-à-go-go-related gene (hERG) potassium channel (human, UniProt Q12809). Description: primary screen, population patch clamp on CHO cells stably expressing hERG.
Chain of human ether-à-go-go-related gene (hERG) potassium channel (Q12809 whole entry, looked up): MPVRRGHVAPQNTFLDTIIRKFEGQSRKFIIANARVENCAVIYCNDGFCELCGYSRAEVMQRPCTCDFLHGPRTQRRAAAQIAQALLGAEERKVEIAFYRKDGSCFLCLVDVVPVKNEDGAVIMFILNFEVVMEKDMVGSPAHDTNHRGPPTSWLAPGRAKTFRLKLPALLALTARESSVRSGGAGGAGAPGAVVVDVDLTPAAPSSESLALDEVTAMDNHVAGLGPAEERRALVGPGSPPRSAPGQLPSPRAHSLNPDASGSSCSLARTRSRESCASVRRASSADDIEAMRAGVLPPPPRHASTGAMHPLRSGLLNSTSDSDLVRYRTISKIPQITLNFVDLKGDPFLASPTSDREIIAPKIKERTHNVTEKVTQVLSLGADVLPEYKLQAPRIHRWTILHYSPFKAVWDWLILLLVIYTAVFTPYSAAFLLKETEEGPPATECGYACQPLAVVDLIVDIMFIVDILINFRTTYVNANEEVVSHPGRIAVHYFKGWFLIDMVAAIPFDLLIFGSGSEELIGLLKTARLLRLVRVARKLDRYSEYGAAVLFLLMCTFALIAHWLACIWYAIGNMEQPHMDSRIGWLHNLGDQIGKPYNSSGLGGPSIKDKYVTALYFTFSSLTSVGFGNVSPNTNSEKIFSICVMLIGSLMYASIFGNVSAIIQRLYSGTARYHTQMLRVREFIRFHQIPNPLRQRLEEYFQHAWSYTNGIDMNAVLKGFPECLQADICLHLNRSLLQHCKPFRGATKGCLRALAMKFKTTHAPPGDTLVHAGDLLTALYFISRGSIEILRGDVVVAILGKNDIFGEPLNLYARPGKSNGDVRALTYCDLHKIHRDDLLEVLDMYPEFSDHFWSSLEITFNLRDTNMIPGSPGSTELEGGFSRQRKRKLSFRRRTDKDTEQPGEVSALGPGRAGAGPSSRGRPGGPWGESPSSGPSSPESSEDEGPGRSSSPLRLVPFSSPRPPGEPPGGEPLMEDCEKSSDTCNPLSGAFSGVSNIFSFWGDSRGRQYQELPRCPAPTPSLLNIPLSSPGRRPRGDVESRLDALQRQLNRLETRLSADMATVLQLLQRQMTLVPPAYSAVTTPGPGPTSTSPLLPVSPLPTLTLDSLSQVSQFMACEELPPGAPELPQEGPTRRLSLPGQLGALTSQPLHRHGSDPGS
With `CN(C)S(=O)(=O)c1ccc(C(=O)Nc2cc(=O)n(C)c(=O)n2C)cc1`, the “hERG current change (%, negative = inhibition) at 1uM” value is recorded as 19.9%.
On to `CCOC(=O)c1[nH]c2ccc(OC)cc2c1NC(=O)CCN1CCC(C)CC1`, for which the “hERG current change (%, negative = inhibition) at 1uM” value is recorded as 2.44%.
For `C=C(C)C1CC=C(C)/C(=N/NC(=O)COc2ccc(Cl)cc2)C1` (centres unmarked), the “hERG current change (%, negative = inhibition) at 1uM” value is on record as 10.2%.
Take `CC1=C(C(=O)OC(C)C)C(C)NC(=O)N1` (centres unmarked): the “hERG current change (%, negative = inhibition) at 1uM” value was -8.01%.
The figure for `CCOc1ccc2ccccc2c1/C=N/NC(=O)CNC(=O)c1ccccc1F` is 9.07%.
On to `COc1cc(C(=S)N2CCCC2)cc(OC)c1OS(=O)(=O)c1ccc(NC(C)=O)cc1`, for which the “hERG current change (%, negative = inhibition) at 1uM” value worked out at 6.43%.
As for `O=C1COc2ccc(-c3csc(NCCc4ccccc4)n3)cc2N1`, the “hERG current change (%, negative = inhibition) at 1uM” value is reported as 5.62%.
The same measure for `O=C(O)c1ccccc1C(=O)c1ccc(N2CCOCC2)c([N+](=O)[O-])c1`: 11.9%.
In the case of `COc1ccc(C(=O)Nc2ccc3nc(C)c(C)nc3c2)cc1`, the “hERG current change (%, negative = inhibition) at 1uM” value was 11.5%.
Take `Cn1c(-c2ccccc2)cnc1NCc1ccccc1`: the “hERG current change (%, negative = inhibition) at 1uM” value turned out to be 9.64%.
Consider `O=C(Nc1nnc(C2CCCCC2)s1)c1cccs1`, for which the “hERG current change (%, negative = inhibition) at 1uM” value was 15.8%.
Regarding `O=C(NNC(=S)Nc1ccccc1)c1cccnc1`, the “hERG current change (%, negative = inhibition) at 1uM” value is given as -2.98%.
`CN(CC(=O)N1CCCCCC1)S(=O)(=O)c1ccc(F)cc1`: the “hERG current change (%, negative = inhibition) at 1uM” value turned out to be 14.7%.
The figure for `Cc1ccc(C(=O)C(OC(=O)COc2ccccc2C)c2ccccc2)cc1` (centres unmarked) is 5.27%; for `CCOC(=O)c1[nH]c(C)c(C(=O)N2CCN(c3cccc(Cl)c3)CC2)c1C` it is -2.34%.
As for `Cc1ccc(-c2nnn(CC(=O)N(CC(=O)NC3CCCCC3)c3cnc4ccccc4c3)n2)o1`, the “hERG current change (%, negative = inhibition) at 1uM” value was -4.11%.
Take `COc1ccc(N/C(N)=N/c2nc(CSc3ccc(Cl)cc3)cc(=O)[nH]2)cc1`: the “hERG current change (%, negative = inhibition) at 1uM” value is on record as 13.8%.
With `Cc1ccc(NC(=O)COC(=O)C2CC2)cc1Cl`, the “hERG current change (%, negative = inhibition) at 1uM” value is recorded as 5.57%.
The figure for `CCOc1ccc(CNC(=O)C2CCN(c3nn4c(=O)cc(C)nc4s3)CC2)cc1` is -2.79%; for `O=C1C2C(c3ccccc3)C=CC(c3ccccc3)C2C(=O)N1CCCO` (centres unmarked) it is 5.52%; for `CCCCN1C(=S)NC[C@@H]1C(C)CC` (some centres unmarked) it is 12.8%.
`Nc1c(C(=O)NCCN2CCOCC2)c2nc3ccccc3nc2n1Cc1ccccc1`: the “hERG current change (%, negative = inhibition) at 1uM” value is given as 10.6%.
As for `CCc1ccc(OCC(=O)N(C)C)c(Br)c1`, the “hERG current change (%, negative = inhibition) at 1uM” value is on record as -0.248%.
As for `COc1ccc2c(c1)c(C(=O)OCCN(C)C)c(C)n2C.Cl`, the “hERG current change (%, negative = inhibition) at 1uM” value is 10.4%.
For `COC(=O)c1ccccc1NC(=O)c1ccccc1N(C)S(=O)(=O)c1ccccc1`, the “hERG current change (%, negative = inhibition) at 1uM” value was determined as 10.8%.
The figure for `O=c1c2c(-c3ccc(Cl)cc3)csc2ncn1/N=C/c1cccc([N+](=O)[O-])c1O` is 3.76%.
On to `COc1ccc(NC(=O)C(C)SCc2ccccc2)cc1` (centres unmarked), for which the “hERG current change (%, negative = inhibition) at 1uM” value came out at 5.37%.
Turning to `O=C(/C=C/c1ccc2c(c1)OCO2)Nc1c(C(=O)O)[nH]c2ccccc12`, the “hERG current change (%, negative = inhibition) at 1uM” value is 9.83%.
As for `O=C(Cn1cc2c(n1)CCCC2)Nc1ccccc1Cl`, the “hERG current change (%, negative = inhibition) at 1uM” value is reported as 11.8%.
Regarding `CCN1CCN(S(=O)(=O)CC2(C)C3CCC2(C)C(=O)C3Br)CC1` (centres unmarked), the “hERG current change (%, negative = inhibition) at 1uM” value amounted to 9.87%.
As to `CC1CC(C)CN(S(=O)(=O)N2CCCC(C(=O)NCCCN3CCCCC3C)C2)C1` (centres unmarked), the “hERG current change (%, negative = inhibition) at 1uM” value turned out to be 1.35%.
For the compound `O=C(Cc1cccs1)N1CCN(S(=O)(=O)c2ccc(Br)cc2)CC1`, the “hERG current change (%, negative = inhibition) at 1uM” value is recorded as 6.64%.
The same measure for `Cc1oc(C(=O)O)cc1CSc1nnc(-c2ccccc2)n1C`: 1.36%; for `CCOC(=O)c1sc(-c2ccc(F)cc2)cc1NC(=O)Nc1ccccc1OC`: -2.89%.
Regarding `Cc1cccc(Cn2c(N3CCN(c4ccccc4)CC3)nc3c2c(=O)n(C)c(=O)n3C)c1`, the “hERG current change (%, negative = inhibition) at 1uM” value is on record as -10.7%.
`Cc1ccc(-n2c(SC3CCOC3=O)nc3ccccc3c2=O)cc1` (centres unmarked): the “hERG current change (%, negative = inhibition) at 1uM” value is listed as -5.71%.
As to `Cc1ccc(CNC(=O)CNC(=O)[C@@H]2Cc3ccccc3CN2C(=O)OC(C)(C)C)cc1`, the “hERG current change (%, negative = inhibition) at 1uM” value was 1.62%.
For `CCN(C(=O)COn1nnc2ccc(S(=O)(=O)N(C)C)cc21)C1CCS(=O)(=O)C1` (centres unmarked), the “hERG current change (%, negative = inhibition) at 1uM” value is 9.66%.
Take `CC(=O)Nc1ccc(NC(=O)COc2cc(O)c3c(c2)OC(C)(C)CC3=O)cc1`: the “hERG current change (%, negative = inhibition) at 1uM” value is reported as -6.05%.
Regarding `COc1ccc(OC)c(C(=O)COC(=O)C(CCSC)NC(=O)COc2ccccc2)c1` (centres unmarked), the “hERG current change (%, negative = inhibition) at 1uM” value was -1.63%.
With `Cc1nc(SCC(=O)c2cc3ccccc3oc2=O)c(C#N)c(-c2ccccc2)c1C(=O)Nc1ccccc1`, the “hERG current change (%, negative = inhibition) at 1uM” value stood at 0.99%.
As for `COC(=O)N/N=C/c1ccc(-c2ccc(Cl)c(Cl)c2)o1`, the “hERG current change (%, negative = inhibition) at 1uM” value was 7.64%.
As for `CCNCc1ccc(OCc2cccs2)c(OCC)c1`, the “hERG current change (%, negative = inhibition) at 1uM” value amounted to 9.84%.
`CCc1cccc(C)c1NC(=O)C1CCCN(S(C)(=O)=O)C1` (centres unmarked): the “hERG current change (%, negative = inhibition) at 1uM” value turned out to be 20.8%.
Consider `CCOC(=O)c1c(-c2ccc(C)cc2)csc1NC(=S)NC(=O)c1ccccc1`, for which the “hERG current change (%, negative = inhibition) at 1uM” value is given as 6.98%.
Turning to `CC(C)c1cccc(O)c(=O)c1`, the “hERG current change (%, negative = inhibition) at 1uM” value was 3.29%.
The figure for `Cc1ccccc1OCCC(=O)Nc1ccc(Cl)cc1F` is 11.5%; for `CSc1cccc(NC(=O)CSc2ccc(Cl)cc2)c1` it is 10.6%.
In the case of `Cc1nc2cc(C(F)(F)F)ccc2n1CCNc1nc(-c2ccc([N+](=O)[O-])c(Cl)c2)cs1`, the “hERG current change (%, negative = inhibition) at 1uM” value was -0.503%.
With `Cc1ccc2nc(C)cc(C(=O)N/N=C/c3ccncc3)c2c1`, the “hERG current change (%, negative = inhibition) at 1uM” value was determined as 8.95%.
Turning to `CC(OC(=O)c1ccc2ncsc2c1)C(=O)N1CCCC1` (centres unmarked), the “hERG current change (%, negative = inhibition) at 1uM” value is listed as -30.7%.
As for `COc1ccc(N(CC(=O)N/N=C/c2cccs2)S(=O)(=O)c2ccccc2)cc1`, the “hERG current change (%, negative = inhibition) at 1uM” value was 18.3%.
As for `Cc1nnc(SCC(=O)Nn2cnnc2)s1`, the “hERG current change (%, negative = inhibition) at 1uM” value is reported as -5.95%.
The figure for `CCC(=O)N(C(=O)CC)N1CCN(c2ccncc2S(=O)(=O)N2CCCCC2)CC1` is -25.4%; for `CCN1/C(=C\C=C\C2=[N+](CC)c3ccccc3C2(C)C)C(C)(C)c2ccccc21.[O-][Cl+3]([O-])([O-])[O-]` it is -86.1%; for `COC(=O)c1cccnc1Oc1ccccc1` it is 6.52%.
